Measured values published in the supplement of paper PMC8728848.
This is one part of the list.

Columns and labels:
Test in all cases: glycan array binding signal (z-score within array); higher = stronger binding
Conditions in all cases: glycan notation: IUPAC condensed, linker removed; mutation: F335Y
Fuc(a1-2)Gal = target: Fuc(a1-2)Gal
Procedure, shortened: (§1)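 Glycan array binding is given as a within-array Z-score, which can be read as non-binding when negative. The arrays, 3228 of them, came from the Consortium for Functional Glycomics database and were retained only where the protein sequence was available. Z-scores were averaged across arrays of the same protein sequence at different concentrations or buffers and across linkers.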

Fuc(a1-2)Gal(b1-3)GalNAc = target: Fuc(a1-2)Gal(b1-3)GalNAc
Procedure, shortened: as §1

[1] = target: Fuc(a1-2)Gal(b1-3)GalNAc(b1-3)Gal
Procedure, shortened: as §1

[2] = target: Fuc(a1-2)Gal(b1-3)GalNAc(b1-3)Gal(a1-4)Gal(b1-4)Glc
Procedure, shortened: as §1

[3] = target: Fuc(a1-2)Gal(b1-3)GalNAc(b1-4)[Neu5Ac(a2-3)]Gal(b1-4)Glc
Procedure, shortened: as §1

Fuc(a1-2)Gal(b1-3)GlcNAc = target: Fuc(a1-2)Gal(b1-3)GlcNAc
Procedure, shortened: as §1

[4] = target: Fuc(a1-2)Gal(b1-3)GlcNAc(b1-3)Gal(b1-4)Glc
Procedure, shortened: as §1

[5] = target: Fuc(a1-2)Gal(b1-3)[Fuc(a1-4)]GlcNAc
Procedure, shortened: as §1

Fuc(a1-2)Gal(b1-4)Glc = target: Fuc(a1-2)Gal(b1-4)Glc
Procedure, shortened: as §1

Fuc(a1-2)Gal(b1-4)Glc6S = target: Fuc(a1-2)Gal(b1-4)Glc6S
Procedure, shortened: as §1

Fuc(a1-2)Gal(b1-4)GlcNAc = target: Fuc(a1-2)Gal(b1-4)GlcNAc
Procedure, shortened: as §1

[6] = target: Fuc(a1-2)Gal(b1-4)GlcNAc(b1-3)Gal(b1-4)GlcNAc
Procedure, shortened: as §1

[7] = target: Fuc(a1-2)Gal(b1-4)GlcNAc(b1-3)Gal(b1-4)GlcNAc(b1-3)Gal(b1-4)GlcNAc
Procedure, shortened: as §1

[8] = target: Fuc(a1-2)Gal(b1-4)GlcNAc6S
Procedure, shortened: as §1

[9] = target: Fuc(a1-2)Gal(b1-4)[Fuc(a1-3)]GlcNAc
Procedure, shortened: as §1

[10] = target: Fuc(a1-2)Gal(b1-4)[Fuc(a1-3)]GlcNAc(b1-3)Gal(b1-4)[Fuc(a1-3)]GlcNAc
Procedure, shortened: as §1

[11] = target: Fuc(a1-2)Gal(b1-4)[Fuc(a1-3)]GlcNAc(b1-3)Gal(b1-4)[Fuc(a1-3)]GlcNAc(b1-3)Gal(b1-4)[Fuc(a1-3)]GlcNAc
Procedure, shortened: as §1

Fuc(a1-2)Gal6S(b1-4)Glc = target: Fuc(a1-2)Gal6S(b1-4)Glc
Procedure, shortened: as §1

[12] = target: Fuc(a1-2)Gal6S(b1-4)Glc6S
Procedure, shortened: as §1

[13] = target: Fuc(a1-2)Gal6S(b1-4)GlcNAc
Procedure, shortened: as §1

Fuc(a1-2)[Gal(a1-3)]Gal = target: Fuc(a1-2)[Gal(a1-3)]Gal
Procedure, shortened: as §1

[14] = target: Fuc(a1-2)[Gal(a1-3)]Gal(b1-3)GlcNAc
Procedure, shortened: as §1

[15] = target: Fuc(a1-2)[Gal(a1-3)]Gal(b1-4)Glc
Procedure, shortened: as §1

[16] = target: Fuc(a1-2)[Gal(a1-3)]Gal(b1-4)GlcNAc
Procedure, shortened: as §1

[17] = target: Fuc(a1-2)[Gal(a1-3)]Gal(b1-4)[Fuc(a1-3)]GlcNAc
Procedure, shortened: as §1

[18] = target: Fuc(a1-2)[Gal(a1-4)]Gal(b1-4)GlcNAc
Procedure, shortened: as §1

[19] = target: Fuc(a1-2)[GalNAc(a1-3)]Gal
Procedure, shortened: as §1

[20] = target: Fuc(a1-2)[GalNAc(a1-3)]Gal(b1-3)GlcNAc
Procedure, shortened: as §1

[21] = target: Fuc(a1-2)[GalNAc(a1-3)]Gal(b1-4)Glc
Procedure, shortened: as §1

[22] = target: Fuc(a1-2)[GalNAc(a1-3)]Gal(b1-4)GlcNAc
Procedure, shortened: as §1

B1: Surfactant Protein D (Human); Neck + Carbohydrate Recognition Domain (NCRD) (Homo sapiens) (protein)
chain: MLLFLLSALVLLTQPLGYLEAEMKTYSHRTMPSACTLVMCSSVESGLPGRDRDGREGPRGEKGDPGLPGAAGQAGMPGQAGPVGPKGDNGSVGEPGPKGDTGPSGPPGPPGVPGPAGREGALGKQGNIGPQGKPGPKGEAGPKGEVGAPGMQGSAGARGLAGPKGERGVPGERGVPGNTGAAGSAGAMGPQGSPGARGPPGLKGDKGIPGDKGAKGESGLPDVASLRQQVEALQGQVQHLQAAFSQYKKVELFPNGQSVGEKIFKTAQFVKPFTEAQLLCTQAGGQLASPRSAAENAALQQLVVAKNEAAFLSMTDSKTEGKFTYPTGESLVYSNWAPGEPNDDGGSEDCVEIYTNGKWNDRACGEKRLVVCEF
Q: How did the “glycan array binding signal (z-score)” value (Fuc(a1-2)Gal) turn out when B1 was run?
A: -0.188

Q: And the “glycan array binding signal (z-score)” value (Fuc(a1-2)Gal(b1-3)GalNAc)?
A: -0.19

Q: What about the “glycan array binding signal (z-score)” value [1] of the same binder?
A: -0.184

Q: And the “glycan array binding signal (z-score)” value [2]?
A: -0.181

Q: And the “glycan array binding signal (z-score)” value [3]?
A: -0.189

Q: And the “glycan array binding signal (z-score)” value (Fuc(a1-2)Gal(b1-3)GlcNAc)?
A: -0.191

Q: What about the “glycan array binding signal (z-score)” value [4] of the same binder?
A: -0.189

Q: And the “glycan array binding signal (z-score)” value [5]?
A: -0.193

Q: And the “glycan array binding signal (z-score)” value (Fuc(a1-2)Gal(b1-4)Glc)?
A: -0.186

Q: And the “glycan array binding signal (z-score)” value (Fuc(a1-2)Gal(b1-4)Glc6S)?
A: -0.185

Q: What about the “glycan array binding signal (z-score)” value (Fuc(a1-2)Gal(b1-4)GlcNAc) of the same binder?
A: -0.191

Q: And the “glycan array binding signal (z-score)” value [6]?
A: -0.183

Q: What about the “glycan array binding signal (z-score)” value [7] of the same binder?
A: -0.178

Q: And the “glycan array binding signal (z-score)” value [8]?
A: -0.193

Q: What about the “glycan array binding signal (z-score)” value [9] of the same binder?
A: -0.179

Q: And the “glycan array binding signal (z-score)” value [10]?
A: -0.064

Q: What about the “glycan array binding signal (z-score)” value [11] of the same binder?
A: -0.168

Q: What about the “glycan array binding signal (z-score)” value (Fuc(a1-2)Gal6S(b1-4)Glc) of the same binder?
A: -0.19

Q: What about the “glycan array binding signal (z-score)” value [12] of the same binder?
A: -0.196

Q: What about the “glycan array binding signal (z-score)” value [13] of the same binder?
A: -0.188

Q: And the “glycan array binding signal (z-score)” value (Fuc(a1-2)[Gal(a1-3)]Gal)?
A: -0.183

Q: And the “glycan array binding signal (z-score)” value [14]?
A: -0.183

Q: And the “glycan array binding signal (z-score)” value [15]?
A: -0.188

Q: And the “glycan array binding signal (z-score)” value [16]?
A: -0.186

Q: What about the “glycan array binding signal (z-score)” value [17] of the same binder?
A: -0.176

Q: And the “glycan array binding signal (z-score)” value [18]?
A: -0.187

Q: What about the “glycan array binding signal (z-score)” value [19] of the same binder?
A: -0.184

Q: And the “glycan array binding signal (z-score)” value [20]?
A: -0.189

Q: And the “glycan array binding signal (z-score)” value [21]?
A: -0.187

Q: And the “glycan array binding signal (z-score)” value [22]?
A: -0.182
